PubChem BioAssay AID588342 (National Center for Advancing Translational Sciences (NCATS), 2011)
Out of some 360,000 compounds screened, about 25,000 (6.9%) were called active. This list was built around the results that the source calls inconclusive (neither active nor inactive); the mix of calls is not that of the screen. The call rests on the fitted dose curve; in most records, active means well fitted inhibition curve with a large enough effect; inconclusive means small, poorly fitted or top-dose-only effect; inactive means flat fitted curve, though single readings scatter. A potency beside an inconclusive call is a rough fit, not a confirmed value.

Target: Luciferin 4-monooxygenase (Photinus pyralis) (UniProt P08659)
Test: qHTS profiling assay for firefly luciferase inhibitor/activator using purifed enzyme and Km concentrations of substrates (counterscreen for miR-21 project); further: nearly all actives have a fitted effect of over 55% in size;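 on activity change, negative = inhibition: plate controls were vehicle for no effect and reference inhibitor for full effect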
Settings: purified FLuc, luminescence inhibition; series mostly up to 57.5 µM; activity change, negative = inhibition: at the top concentration
Method in brief: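 Purified P. pyralis luciferase (10nM final) with 10uM D-luciferin and 10uM ATP (Km levels) in 50mM Tris acetate pH 7.5, 10mM Mg acetate, 0.01% Tween-20, 0.05% BSA; qHTS 6-point titration, ~60 µM downward; luminescence read.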
Potency means the concentration at half of the fitted maximal effect; tags describe the fitted curve by direction and shape.

Chain of UniProt P08659 (P08659 whole entry, looked up): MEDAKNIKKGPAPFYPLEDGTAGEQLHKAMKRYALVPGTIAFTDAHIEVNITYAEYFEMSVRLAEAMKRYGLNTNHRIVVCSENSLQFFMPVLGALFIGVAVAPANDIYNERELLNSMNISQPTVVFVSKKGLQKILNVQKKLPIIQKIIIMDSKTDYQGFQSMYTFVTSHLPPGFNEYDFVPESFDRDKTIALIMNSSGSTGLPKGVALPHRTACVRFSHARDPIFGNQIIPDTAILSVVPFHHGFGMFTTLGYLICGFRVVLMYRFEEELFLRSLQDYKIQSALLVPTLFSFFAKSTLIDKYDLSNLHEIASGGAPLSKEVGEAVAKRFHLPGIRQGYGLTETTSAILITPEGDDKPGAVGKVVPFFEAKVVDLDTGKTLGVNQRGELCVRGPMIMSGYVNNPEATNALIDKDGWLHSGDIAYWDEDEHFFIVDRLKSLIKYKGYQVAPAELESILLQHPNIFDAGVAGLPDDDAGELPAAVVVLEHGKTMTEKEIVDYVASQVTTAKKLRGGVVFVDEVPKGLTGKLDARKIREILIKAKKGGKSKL

Row | Compound | Potency | activity change, negative = inhibition
1 | O=C(O)c1cc2c(cc1NC(=O)c1ccccc1OC(F)F)OCCCO2 | inconclusive: 26.9 µM [inhibitor, partial curve] | 
2 | COc1ccc(-c2csc(Nc3cccc(C)n3)n2)cc1 | active: 2.69 µM | 
3 | C=CCOc1ccc(/C=C2\SC(=S)N(NS(=O)(=O)c3ccc(C)cc3)C2=O)cc1 | inconclusive: 30.1 µM [inhibitor, partial curve, poor fit] | 
4 | COc1ccc2c(c1)c(=O)oc1cc(OCC(=O)NC3CCCCC3)ccc12 | inconclusive: 6.75 µM [inhibitor, partial curve, poor fit] | 
5 | CCOC(=O)C1(Cc2cccc(OC)c2)CCN(C(C)CC(C)(C)O)CC1 (stereo not given) | inconclusive: 15.1 µM [inhibitor, partial curve] | 
6 | Cc1cc(-n2c(C)cc(C(=O)CN3C(=O)NC4(CCCCC4C)C3=O)c2C)no1 (stereo not given) |  | inactive: 2.79%
7 | O=C(COc1cccc2cccnc12)NNC(=S)Nc1ccccc1 | inconclusive: 37.9 µM [inhibitor, partial curve, poor fit] | 
8 | Cc1ccc(-n2nc3cc(C)c(NC(=O)c4cccnc4)cc3n2)cc1 | inconclusive: 0.301 µM [inhibitor, full curve, poor fit] | 
9 | Cc1[nH]c2ccccc2c1/C=N/NC(=O)c1cccc([N+](=O)[O-])c1 | inconclusive: 23.9 µM [inhibitor, partial curve, poor fit] | 
10 | COc1cccc(C(=O)N(C)CC(=O)Nc2ccc(F)c(F)c2F)c1 |  | inactive: 0.848%
11 | CC(C)c1ccc(NC(=O)CSc2nnc(-c3ccccn3)n2C)cc1 | inconclusive: 15.1 µM [inhibitor, partial curve] | 
12 | O=C(Nc1cccc(C(F)(F)F)c1)c1ccc2nc(-c3ccco3)c(-c3ccco3)nc2c1 | inconclusive: 23.9 µM [inhibitor, partial curve] | 
13 | Cn1c(=O)c2c(nc(N3CCc4ccccc4C3)n2Cc2ccccc2F)n(C)c1=O | inconclusive: 5.36 µM [inhibitor, partial curve, poor fit] | 
14 | Cc1ccc(C(=O)NCCNS(=O)(=O)c2ccccc2)cn1 |  | inactive: -0.438%
15 | O=C(COC(=O)/C=C/c1ccccc1[N+](=O)[O-])Nc1ccc(OCc2ccccc2)cc1 |  | inactive: 1.06%
16 | O=C(N/N=C/c1ccc[nH]1)c1ccc([N+](=O)[O-])cc1 | active: 15.1 µM | 
17 | O=C(Nc1nc(-c2ccncc2)cs1)C1COc2ccccc2O1 (stereo not given) | inconclusive: 37.9 µM [inhibitor, partial curve, poor fit] | 
18 | O=C(NC1(C(F)(F)F)N=C(c2ccccc2)N(Cc2ccccc2)C1=O)c1ccc(F)cc1 (stereo not given) |  | inactive: -10.2%
19 | Cc1ccc(NP(=O)(c2ccc(N(C)C)cc2NC(=O)c2cccs2)N2CCOCC2)cc1 (stereo not given) |  | inactive: -18.7%
20 | CC1(C)Oc2ccc(C(=O)N/N=C/c3ccc(O)cc3)cc2NC1=O | inconclusive: 37.9 µM [inhibitor, partial curve, poor fit] | 
21 | CC(C)OC(=O)CC(=O)CSc1nc2c(cc1C#N)CCCCCC2 | inconclusive: 26.9 µM [inhibitor, partial curve, poor fit] | 
22 | CNC(=S)N1N=C(c2ccccc2)CC1c1ccc(Br)cc1 (stereo not given) | inconclusive: 37.9 µM [inhibitor, partial curve, poor fit] | 
23 | Cc1cc(=O)[nH]c(N/N=C/c2ccc(F)cc2)n1 | inconclusive: 26.9 µM [inhibitor, partial curve, poor fit] | 
24 | O=C1COc2ccc(C(=O)COC(=O)c3c(F)cccc3Cl)cc2N1 | inconclusive: 2.39 µM [inhibitor, partial curve, poor fit] | 

Row | Compound | Potency | activity change, negative = inhibition
25 | CCCc1nc2sc3ccccc3c(=O)c2c(=O)n1Cc1ccc(OC)cc1 | inconclusive: 19 µM [inhibitor, partial curve, poor fit] | 
26 | COc1ccc(C(=O)C2CCCN(C(=O)C3=CCCC3)C2)cc1OC (stereo not given) |  | inactive: -8.83%
27 | N/C(Cc1cccs1)=N\OC(=O)COc1ccc(Br)cc1 | inconclusive: 37.9 µM [inhibitor, partial curve, poor fit] | 
28 | COc1cccc2c3c(c(=O)[nH]c12)CCC(C)(C)O3 | inconclusive: 37.9 µM [inhibitor, partial curve, poor fit] | 
29 | O=C(O)c1cc(O)ccc1N=Nc1ccccc1 |  | inactive: 1.39%
30 | CC1CCN(c2nc3ccccc3nc2SCC(=O)Nc2ccccc2C(C)C)CC1 |  | inactive: -5.31%
31 | COc1ccc2c(c1)[nH]c1c(=O)n(Cc3ccccn3)cnc12 | inconclusive: 37.9 µM [inhibitor, partial curve, poor fit] | 
32 | Cc1ccc(N/C=C(/C#N)c2ccsc2)cc1 | active: 16.9 µM | 
33 | Cn1c(CNC(=O)c2ccc3c(c2)OCO3)nnc1SCC(=O)Nc1ccccc1Cl | inconclusive: 26.9 µM [inhibitor, single point] | 
34 | O=C(Cc1cccs1)Nc1ccccc1C(=O)O | active: 15.1 µM | 
35 | COc1cc(NS(=O)(=O)c2cc(Br)cc3c2N(C(C)=O)C(C)C3)cc(OC)c1 (stereo not given) |  | inactive: -17.5%
36 | O=C1CCCc2nc(N3CCCCC3)sc21 | inconclusive: 15.1 µM [inhibitor, partial curve] | 
37 | CCc1ccc2oc(C(=O)NCc3ccncc3)c(C)c2c1 | inconclusive: 37.9 µM [inhibitor, single point] | 
38 | O=C(Nc1ccc(Cl)cc1Cl)c1ccc2ncsc2c1 | active: 2.69 µM | 
39 | O=C(CSc1nnnn1-c1ccc(F)cc1)c1ccc(O)c(O)c1 | inconclusive: 26.9 µM [inhibitor, partial curve] | 
40 | Cc1c(OCC(=O)N2CCC(C(N)=O)CC2)ccc2c1oc(=O)c1ccccc12 | inconclusive: 23.9 µM [inhibitor, partial curve, poor fit] | 
41 | Cc1ccc(-c2cc(C(=O)N3N=C(C(F)F)CC3(O)C(F)F)c3ccccc3n2)cc1C (stereo not given) | active: 7.57 µM | 
42 | CCCNS(=O)(=O)c1ccc(NC(=O)c2ccccn2)cc1 | inconclusive: 26.9 µM [inhibitor, partial curve, poor fit] | 
43 | COC(=O)c1[nH]c2cccc(OC)c2c1NC(=O)CCN1CCC(C)CC1 |  | inactive: -0.0669%
44 | Cn1c(C(=O)NCc2ccccc2Cl)cc2sc(Cl)cc21 | inconclusive: 21.3 µM [inhibitor, partial curve, poor fit] | 
45 | Cc1ccc(OCCn2c(CNc3ccccc3C)nc3ccccc32)cc1 | inconclusive: 13.5 µM [inhibitor, partial curve] | 
46 | CC(=O)N1CCc2cc(S(=O)(=O)NC(CC(C)C)C(=O)N3CCCC3)ccc21 (stereo not given) |  | inactive: 1.83%
47 | COc1ccc(OCc2csc(N)n2)cc1 | inconclusive: 26.9 µM [inhibitor, partial curve] | 
48 | Cc1ccc(C)c(N=Nc2ccc(O)c3ncccc23)c1 | active: 10.7 µM | 

Row | Compound | Potency | activity change, negative = inhibition
49 | Cc1cc(C)nc(NS(=O)(=O)c2ccc(N=NN(C)C)cc2)n1 |  | inactive: -4.14%
50 | COc1cccc(NC(=O)c2cnc(SCC(=O)NCc3ccc4c(c3)OCO4)n(C)c2=O)c1 | inconclusive: 15.1 µM [inhibitor, partial curve, poor fit] | 
51 | CCn1cc(CN2CCCC(CNC(=O)COc3ccccc3OC)C2)c(C)n1 (stereo not given) |  | inactive: -5.11%
52 | O=C(c1cc(-c2ccco2)on1)N1CCc2ccccc2C1 | inconclusive: 30.1 µM [inhibitor, single point] | 
53 | COc1ccc(-c2nsc(NC(=O)c3oc4ccc(Cl)cc4c3C)n2)cc1 |  | inactive: -15.8%
54 | OCCN=C1CCCc2c1[nH]c1ccc(Cl)cc21 | inconclusive: 30.1 µM [inhibitor, partial curve, poor fit] | 
55 | COc1ccc(Cl)cc1NC(=O)NCc1ccc2c(c1)OCO2 | inconclusive: 23.9 µM [inhibitor, partial curve, poor fit] | 
56 | Cc1nc(-c2cccc(F)c2)sc1CCNC(=O)Cc1ccc(F)cc1 |  | inactive: -15.7%
57 | O=C(CN1CCN(c2cccc(C(F)(F)F)c2)CC1)N(C1CCCC1)C1CCS(=O)(=O)C1 (stereo not given) | inconclusive: 23.9 µM [inhibitor, single point] | 
58 | c1ccc2nc3c(cc2c1)CCCCC3 | inconclusive: 21.3 µM [inhibitor, partial curve] | 
59 | CSc1ccc(Cc2ccc(Cl)cc2Cl)nn1 | active: 16.9 µM | 
60 | C/C(=N\NC(=O)COc1ccc(C(C)(C)C)cc1)c1ccc(N2CCOCC2)cc1 | inconclusive: 3.79 µM [inhibitor, partial curve, poor fit] | 
61 | S=c1[nH]nc(Nc2cccc(Cl)c2)s1 | inconclusive: 26.9 µM [inhibitor, single point] | 
62 | CCC(C)NC(=O)c1ccc(C(=O)c2ccccc2)cc1 (stereo not given) | inconclusive: 21.3 µM [inhibitor, partial curve, poor fit] | 
63 | COc1ccc(OCC(=O)N/N=C/c2ccsc2)cc1 | inconclusive: 23.9 µM [inhibitor, partial curve, poor fit] | 
64 | O=C(O)CNC(=S)N(Cc1ccccc1Cl)C1CCCC1 | inconclusive: 23.9 µM [inhibitor, partial curve] | 
65 | Cc1cc(C)cc(NC(=O)Cn2ncn3c(cc4ccccc43)c2=O)c1 |  | inactive: -2.11%
66 | COc1ccc(NC(=O)Nc2cccc(-c3noc(C)n3)c2)cc1 | inconclusive: 2.69 µM [inhibitor, partial curve] | 
67 | Cc1nc(NC(=O)C2CCCCC2)sc1C | inconclusive: 16.9 µM [inhibitor, partial curve] | 
68 | O=C(c1cccs1)N1CCCc2cc(NS(=O)(=O)c3ccc(Br)cc3)ccc21 | inconclusive: 15.1 µM [inhibitor, partial curve] | 
69 | Cc1[nH]n(C(N)=S)c(=O)c1N=Nc1cccc([N+](=O)[O-])c1C | active: 8.49 µM | 
70 | O=C(NCc1ccccc1Cl)c1ccc2c(c1)ncn2-c1cccc(F)c1 | inconclusive: 30.1 µM [inhibitor, single point] | 
